Read counts are not given, so values of variants with three or more changes are uncertain.
B1: LINE1-mini (parent)
chain: GGCAGAGCUCAACACAGCGUGGCAAAGUGGCUGUGGCUAGACUGCC

Variants of: B1
Experiment: self-cleavage, relative activity (ratio to wild type); higher = more cleavage; in vitro, sequencing; the parent is a self-cleaving ribozyme
For G2C A14U C15G A24U C37G, the self-cleavage was 0.01. Work on G2C A14U C23A yielded a self-cleavage of 0.08. Work on G2C A14U G40U C42U C46G yielded a self-cleavage of 0.11. In the case of G2C A16C A25G, the self-cleavage is reported as 0.02. In the case of G2C A16C G22A, the self-cleavage is reported as 0.08. In the case of G2C A16C G27C U43G, the self-cleavage is reported as 0.01. G2C A16G A24C A41U showed a self-cleavage of 0.08. Work on G2C A16G C18A C45G yielded a self-cleavage of 0.01. For G2C A16G G17A G22A U34G, the self-cleavage was 0.01. For G2C A16G G29U, the self-cleavage was 0.1. With G2C A16G G33C the self-cleavage was 0.01. Work on G2C A16U C18A G21C yielded a self-cleavage of 0.11. In the case of G2C A16U C18G, the self-cleavage is reported as 0.02. G2C A16U C37G gave a self-cleavage of 0.13. G2C A16U G17U showed a self-cleavage of 0.13. Variant G2C A16U G22C G33A U34C has a self-cleavage of 0.02. G2C A16U G35C gave a self-cleavage of 0.08. For G2C A16U U32A A39U U43A, the self-cleavage was 0. Variant G2C A24C G40A G44A has a self-cleavage of 0.01. G2C A24G C31U showed a self-cleavage of 0.01. G2C A24G G27U showed a self-cleavage of 0.05. For G2C A24G U38G, the self-cleavage was 0.01. G2C A24U A26G G30U showed a self-cleavage of 0.05. Variant G2C A24U A26U has a self-cleavage of 0.06. G2C A25C A26C U28A G36U C37A showed a self-cleavage of 0.05. Work on G2C A25G C31U G35A yielded a self-cleavage of 0.02. Work on G2C A26C U34A yielded a self-cleavage of 0.01. With G2C A26G C31G the self-cleavage was 0.07. G2C A26G C45G gave a self-cleavage of 0.2. Work on G2C A26G G36C yielded a self-cleavage of 0.23. For G2C A26U U32A G36C A41C G44C, the self-cleavage was 0.02. Work on G2C A39U G44U yielded a self-cleavage of 0.07. G2C C3A A4C C18U G35C gave a self-cleavage of 0.06. Variant G2C C3A A4C G27A U43A has a self-cleavage of 0.05. G2C C3A A6G U9C G36U C45U showed a self-cleavage of 0.14. For G2C C3A A24U U28C C46U, the self-cleavage was 0.14. Variant G2C C3A C8U A11C G19A C23A C46A has a self-cleavage of 0.03. Variant G2C C3A C8U U9A has a self-cleavage of 0.26. In the case of G2C C3A C13A C18A G29A C45G, the self-cleavage is reported as 0.02. Variant G2C C3A C15A G19A C37A has a self-cleavage of 0.05. G2C C3A C15A G19U U38A showed a self-cleavage of 0.04. For G2C C3A C15A G22U, the self-cleavage was 0.08. In the case of G2C C3A C15U, the self-cleavage is reported as 0.09. G2C C3A C18A G19U G27A gave a self-cleavage of 0.11. G2C C3A G5U A11G C18U U32G U38C gave a self-cleavage of 0.02. Variant G2C C3A G22A C37U has a self-cleavage of 0.02. Variant G2C C3A G22U has a self-cleavage of 0.04. In the case of G2C C3A G27U G33A, the self-cleavage is reported as 0.04. G2C C3A U9A G29U G30U showed a self-cleavage of 0.21. Work on G2C C3A U9G A39U yielded a self-cleavage of 0.08. G2C C3G A6G G21C G27U A39G gave a self-cleavage of 0.05. In the case of G2C C3G A26U A41U, the self-cleavage is reported as 0.11. For G2C C3G C13U, the self-cleavage was 0.06. G2C C3G C18U G19C gave a self-cleavage of 0.04. Variant G2C C3G C23A has a self-cleavage of 0.08. With G2C C3G G5A A25U the self-cleavage was 0.04. G2C C3G G22U U32A showed a self-cleavage of 0.06. G2C C3G G35U showed a self-cleavage of 0.03. In the case of G2C C3G U9A U28C G36A U38C A39U, the self-cleavage is reported as 0.49. In the case of G2C C3U A4C A12U, the self-cleavage is reported as 0.14. G2C C3U A4G C18U gave a self-cleavage of 0.1. For G2C C3U A11G U38A, the self-cleavage was 0.04. Variant G2C C3U C8A A12G C13U A24G has a self-cleavage of 0.08. Work on G2C C3U C10A G19A G33U C46U yielded a self-cleavage of 0.03. For G2C C3U C10U, the self-cleavage was 0.15. For G2C C3U C15G, the self-cleavage was 0.03. G2C C3U C23G A39G showed a self-cleavage of 0.06. For G2C C3U C46A, the self-cleavage was 0.04. For G2C C3U G5U C13A G17U G27U U34G, the self-cleavage was 0.03. Variant G2C C3U G19U has a self-cleavage of 0.03. Variant G2C C3U G19U G27A G29A has a self-cleavage of 0.05. Variant G2C C3U G35C has a self-cleavage of 0.2. Variant G2C C3U U9C G29A has a self-cleavage of 0.04. G2C C3U U20C G30U C31A C37U showed a self-cleavage of 0.11. Variant G2C C8A A11C has a self-cleavage of 0.02. G2C C8A A11C G33U C46U gave a self-cleavage of 0.01. For G2C C8A A11U A14U C23A G27C, the self-cleavage was 0.02. For G2C C8A A12C G33U, the self-cleavage was 0.03. In the case of G2C C8A A12C G40C, the self-cleavage is reported as 0.02. G2C C8A A25U G33C A41G showed a self-cleavage of 0.21. Work on G2C C8A A25U U32C U38G C42U C45A yielded a self-cleavage of 0.02. G2C C8A C15U showed a self-cleavage of 0.12. Work on G2C C8A C23U C37A yielded a self-cleavage of 0.05. Work on G2C C8A G36A yielded a self-cleavage of 0.07. Work on G2C C8G A14G A25C G27C C45G yielded a self-cleavage of 0.01. Variant G2C C8G A16G has a self-cleavage of 0.02. Variant G2C C8G A39U has a self-cleavage of 0.04. Variant G2C C8G C13G A14C G30A C37A has a self-cleavage of 0.55. G2C C8G G17A C31U gave a self-cleavage of 0.02. Variant G2C C8G G30A U38A C46G has a self-cleavage of 0. G2C C8G G44U showed a self-cleavage of 0.03. With G2C C8G U9G the self-cleavage was 0.07. G2C C8U A11G G29U A41C showed a self-cleavage of 0.01. Variant G2C C8U A14U C15A G17A A24C G30C C42U has a self-cleavage of 0.11. Work on G2C C8U A14U C37A yielded a self-cleavage of 0.01. Variant G2C C8U A14U C45G has a self-cleavage of 0.13. G2C C8U A14U G17U U20G A26G G36U gave a self-cleavage of 0.09. In the case of G2C C8U A41U, the self-cleavage is reported as 0.03. With G2C C8U C10G C23U U28A C37A A39U the self-cleavage was 0. In the case of G2C C8U C10U A16C C18A A24G, the self-cleavage is reported as 0.01. Work on G2C C8U U20G U28G yielded a self-cleavage of 0.04. Work on G2C C10A A16G U32A yielded a self-cleavage of 0.02. With G2C C10A A24C U34G the self-cleavage was 0.01. With G2C C10A A25U A26U C42G the self-cleavage was 0.02. G2C C10A C13A C15A G29U showed a self-cleavage of 0.03. In the case of G2C C10A C18G G40A C46A, the self-cleavage is reported as 0.03. G2C C10A C23A G30C gave a self-cleavage of 0.02. G2C C10A C23G C46A showed a self-cleavage of 0.01. G2C C10A C37U showed a self-cleavage of 0.06. G2C C10A G19A G27U G36A gave a self-cleavage of 0. For G2C C10A G19A U34C G36A G44C, the self-cleavage was 0.01. G2C C10A G19U A25G gave a self-cleavage of 0.02. In the case of G2C C10A G29C, the self-cleavage is reported as 0.03. For G2C C10A U20G, the self-cleavage was 0.02. Work on G2C C10A U20G G29A yielded a self-cleavage of 0.03. For G2C C10A U28A U38C, the self-cleavage was 0.02. For G2C C10G A11C A12C G17U G22U G27C C31A U34G, the self-cleavage was 0. For G2C C10G A14G U43G, the self-cleavage was 0.03. Work on G2C C10G A26C U32A yielded a self-cleavage of 0.01. G2C C10G C15A G21C A25U U32A U34G G40U gave a self-cleavage of 0.01. In the case of G2C C10G U38C G40U, the self-cleavage is reported as 0. G2C C10U A14G A16C gave a self-cleavage of 0.02. With G2C C10U A14U the self-cleavage was 0.02. G2C C10U A16G showed a self-cleavage of 0.02. Variant G2C C10U C46A has a self-cleavage of 0.28. Variant G2C C10U G19C U38G has a self-cleavage of 0.02. Variant G2C C10U G22A has a self-cleavage of 0.11. With G2C C10U G27C the self-cleavage was 0. G2C C10U G30C gave a self-cleavage of 0.15. G2C C10U G35A G40C showed a self-cleavage of 0.02. G2C C10U U20A C31A gave a self-cleavage of 0.01. Variant G2C C13A A24U G35U has a self-cleavage of 0.1. Work on G2C C13A A25G A39U G44C yielded a self-cleavage of 0.09. G2C C13A A25U C46A showed a self-cleavage of 0.01. Variant G2C C13A A41C has a self-cleavage of 0.04. With G2C C13A C18U G19A the self-cleavage was 0.02. With G2C C13A G17A G19U C23A the self-cleavage was 0.02. G2C C13A G19A A25G gave a self-cleavage of 0.09. Variant G2C C13A G30C has a self-cleavage of 0.24. In the case of G2C C13A G30U C37U, the self-cleavage is reported as 0.46. Variant G2C C13G A24U has a self-cleavage of 0.03. In the case of G2C C13G C37G G44A, the self-cleavage is reported as 0.07. With G2C C13G C45A the self-cleavage was 0.02. G2C C13G C45U showed a self-cleavage of 0.42. For G2C C13G G19A G21A, the self-cleavage was 0.03. Variant G2C C13G G19C G21A C31A C46U has a self-cleavage of 0.17. Work on G2C C13G G21A C46G yielded a self-cleavage of 0.2. Variant G2C C13G U28A has a self-cleavage of 0.07. Work on G2C C13U A39G C45U yielded a self-cleavage of 0.04. For G2C C13U G17U U28A C37U C45U, the self-cleavage was 0.01. For G2C C13U G19A, the self-cleavage was 0. For G2C C13U G35A A39G, the self-cleavage was 0.22. Work on G2C C13U U32C A39G yielded a self-cleavage of 0.04. With G2C C15A C23U A24U C46U the self-cleavage was 0.01. Variant G2C C15A U20G U34A has a self-cleavage of 0.03. In the case of G2C C15A U34A, the self-cleavage is reported as 0.04. G2C C15G A16U G22A C31A A39G showed a self-cleavage of 0.04. G2C C15G A25C gave a self-cleavage of 0.02. In the case of G2C C15G C18A U20C A25G C42U, the self-cleavage is reported as 0.01. Work on G2C C15G G17A A26U yielded a self-cleavage of 0.08. For G2C C15G G21U G29A G33U A39C C45G, the self-cleavage was 0.01. For G2C C15G G35C C46U, the self-cleavage was 0.2. G2C C15G U43C gave a self-cleavage of 0.01. With G2C C15U A16U A24U G27A G35A C46A the self-cleavage was 0.01. Variant G2C C15U G22A C23A C37A has a self-cleavage of 0.67. Work on G2C C15U G29U yielded a self-cleavage of 0.08. Work on G2C C15U U34G yielded a self-cleavage of 0.09.

From the RNAGym collection of RNA variant scans (doi:10.7554/elife.90254)
